Measured values from PMC5836133.
This is one part of the list. At the low end of the ranking, values are background and their order means little.

The sequences below were run on T1, GST-NbGlk1(82-244) (assay: protein-binding microarray). Conditions: NbGlk1 is a Golden2-like transcription factor of Nicotiana benthamiana; high values mean tight binding; most listed sequences are background and not binding sites; double strand, one strand shown.
T1 sequence: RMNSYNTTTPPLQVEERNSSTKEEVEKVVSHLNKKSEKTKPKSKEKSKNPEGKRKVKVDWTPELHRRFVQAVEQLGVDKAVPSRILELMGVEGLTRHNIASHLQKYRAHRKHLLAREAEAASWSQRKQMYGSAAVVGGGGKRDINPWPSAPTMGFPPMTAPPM
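Further: rank-based score ranging −0.5 to +0.5 with E above 0.45 taken as significant binding.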

Row | Sequence | binding signal
1 | ACCGTTTA | 0.0592 E-score
2 | ACGTGGTG | -0.271 E-score
3 | CAAGTCAA | -0.112 E-score
4 | ATCAAAGA | 0.166 E-score
5 | ATTTTGCA | 0.238 E-score
6 | ATCCCCCA | 0.168 E-score
7 | ACGGCCGC | -0.247 E-score
8 | AAGTTGGA | 0.0478 E-score
9 | ATTCCAAG | 0.205 E-score
10 | CACAGCAG | -0.0173 E-score
11 | AGACACTA | -0.115 E-score
12 | ACGTCCCA | -0.293 E-score
13 | ACCCGGAC | -0.228 E-score
14 | AGCTTTAT | -0.0619 E-score
15 | ACACAATA | 0.226 E-score
16 | ATATACAC | 0.0924 E-score
17 | CAACCGAG | -0.204 E-score
18 | AAAGCGTA | 0.0465 E-score
19 | AAGTTTGG | -0.0316 E-score
20 | AGCGGTAC | -0.0799 E-score
21 | ACTCATCG | -0.0979 E-score
22 | ATGCCGTA | 0.0205 E-score
23 | ACTCTTGG | -0.074 E-score
24 | CAATTGCC | -0.0514 E-score
25 | AGGAGCGC | -0.161 E-score

Row | Sequence | binding signal
26 | ATTAGTGC | 0.0058 E-score
27 | ACGTATAA | 0.241 E-score
28 | ACGGATAT | 0.381 E-score
29 | AGTAGTAG | -0.0939 E-score
30 | AATGCAGT | -0.0297 E-score
31 | AGTAAACT | -0.118 E-score
32 | ACTACGGC | -0.172 E-score
33 | AAGATTGA | 0.0479 E-score
34 | AGGGTCTA | -0.268 E-score
35 | ACCTTCTC | -0.113 E-score
36 | AATTGTGA | 0.0924 E-score
37 | AGTTATTC | 0.0977 E-score
38 | AGCATGCC | -0.212 E-score
39 | ATCGGCCA | -0.00614 E-score
40 | ACAAACGT | -0.0435 E-score
41 | AATGGTCT | -0.2 E-score
42 | ACGCTGTG | -0.179 E-score
43 | ACACCGGC | -0.287 E-score
44 | ATGAGATG | 0.0471 E-score
45 | AATCGGAG | 0.182 E-score
46 | ACACTTAT | 0.0533 E-score
47 | CAAGGCTC | -0.22 E-score
48 | ATCAGGAA | 0.288 E-score
49 | ATGGTTTG | -0.109 E-score
50 | AGGTTACA | 0.053 E-score

Row | Sequence | binding signal
51 | AGGTGTCC | -0.195 E-score
52 | ATACACTG | -0.0577 E-score
53 | ACAAAGAG | -0.012 E-score
54 | AAAACCAA | 0.0786 E-score
55 | AAGTGCTG | -0.187 E-score
56 | ATCTAGAC | 0.287 E-score
57 | ATTGGCGA | 0.123 E-score
58 | ATTCTCTC | 0.269 E-score
59 | ACATATTA | 0.172 E-score
60 | ATGAGCAT | -0.17 E-score
61 | ACCCACGT | -0.207 E-score
62 | ACAAGAAC | -0.00628 E-score
63 | AGAGAAGA | -0.00289 E-score
64 | AGGCTAGC | -0.285 E-score
65 | ACGATCGA | 0.134 E-score
66 | ACGCGACA | 0.0352 E-score
67 | AGAGTACT | -0.0962 E-score
68 | CAACGTAA | 0.148 E-score
69 | ATGTCTGA | 0.0128 E-score
70 | ATATTGAA | 0.203 E-score
71 | AGCAGGCG | -0.248 E-score
72 | ATAGCCCG | -0.162 E-score
73 | CACGGAGA | 0.0492 E-score
74 | AAGTACGA | 0.127 E-score
75 | CACGTGCA | -0.00175 E-score

Row | Sequence | binding signal
76 | CACCCGAG | -0.155 E-score
77 | ACAGACCT | -0.172 E-score
78 | ATCCGCCA | 0.254 E-score
79 | CACTGACG | -0.0467 E-score
80 | ACACGCAG | -0.0752 E-score
81 | AGCCTTCA | -0.282 E-score
82 | AATTGGAG | 0.0169 E-score
83 | AGGCCAAC | -0.225 E-score
84 | AAGAGCGT | 0.0232 E-score
85 | ATCTGTGA | 0.344 E-score
86 | CACAAGTC | -0.0923 E-score
87 | ATCCTTAA | 0.226 E-score
88 | ATTCGGAA | 0.123 E-score
89 | AGGAAGCC | -0.236 E-score
90 | AATGAAAA | 0.0916 E-score
91 | CAGCGTTA | 0.0912 E-score
92 | AACCTTCG | -0.227 E-score
93 | AAAACTGC | -0.0562 E-score
94 | CAGATATA | 0.173 E-score
95 | ATATTTTC | 0.363 E-score
96 | ACCAAGTG | -0.0953 E-score
97 | CACACGTC | -0.166 E-score
98 | ACGTTCCC | -0.27 E-score
99 | ACTTCTAG | -0.14 E-score
100 | AGATTACA | 0.477 E-score

Row | Sequence | binding signal
101 | AATGTCAA | 0.015 E-score
102 | AGTATGAG | 0.00401 E-score
103 | ATATCGAC | 0.32 E-score
104 | CAGCACTA | -0.16 E-score
105 | ATAGCTGA | -0.0287 E-score
106 | ACAGTGGA | 0.00465 E-score
107 | AAAAACAT | -0.00134 E-score
108 | AGATTAAT | 0.151 E-score
109 | CAGCCAAA | 0.00889 E-score
110 | ATCTGTGC | 0.231 E-score
111 | ACTATCCG | 0.111 E-score
112 | CAGCAGGG | -0.211 E-score
113 | AAAGCGAT | 0.215 E-score
114 | AAATTTTC | 0.273 E-score
115 | AAAGCGCT | -0.123 E-score
116 | AGTCACCG | -0.156 E-score
117 | AATCCTAG | 0.388 E-score
118 | ACTTTCGA | 0.0194 E-score
119 | CACCGACC | -0.156 E-score
120 | ACTAACCT | -0.122 E-score
121 | ATTATGAA | 0.0803 E-score
122 | ATAGCTAC | -0.046 E-score
123 | ACTTAACA | 0.108 E-score
124 | ATCCATGC | 0.206 E-score
125 | AATTGCAG | 0.0378 E-score

Row | Sequence | binding signal
126 | ACCGAATG | -0.0831 E-score
127 | ATGGTGGC | -0.0809 E-score
128 | AGGCGTGG | -0.207 E-score
129 | AGCGCTAA | -0.189 E-score
130 | ATAAAAGC | 0.0351 E-score
131 | AATCCCTG | 0.283 E-score
132 | ACTACTCG | 0.0167 E-score
133 | AGTTTACC | -0.0752 E-score
134 | AGGGTACA | -0.0829 E-score
135 | AGCGGATC | 0.324 E-score
136 | ATGATAAA | 0.171 E-score
137 | ACAATCGT | 0.099 E-score
138 | AGCACCGG | -0.221 E-score
139 | ATCGGAGG | -0.104 E-score
140 | AAGTCCAA | -0.142 E-score
141 | ACGCACTA | 0.0237 E-score
142 | AGTAAGTA | 0.193 E-score
143 | CACGTATA | 0.17 E-score
144 | CAGATCGC | 0.417 E-score
145 | AAAGGACT | -0.0666 E-score
146 | ATTTTGTA | 0.298 E-score
147 | ATGGCGCA | -0.0516 E-score
148 | ACAATGTA | 0.0949 E-score
149 | CACTTACC | -0.155 E-score
150 | CAAACGAG | 0.0018 E-score

Row | Sequence | binding signal
151 | AATTTCTA | 0.152 E-score
152 | AAATGGTC | -0.176 E-score
153 | CACGGCGC | -0.264 E-score
154 | CACCCCTG | -0.163 E-score
155 | ATACATAG | 0.163 E-score
156 | CAAGGTCG | -0.0443 E-score
157 | ATGTCGGA | 0.000838 E-score
158 | ATAGTCGG | -0.0699 E-score
159 | ATTAGCCG | -0.0312 E-score
160 | ATGCGCTC | -0.157 E-score
161 | ATTATACC | 0.0494 E-score
162 | ATTACGGA | 0.366 E-score
163 | CAAAATCA | 0.314 E-score
164 | AATAACAC | 0.0467 E-score
165 | AGGACTAC | -0.286 E-score
166 | AACTCTAC | -0.0761 E-score
167 | ACATTACC | 0.0562 E-score
168 | CAAGTTTA | -0.0779 E-score
169 | CACAGCCG | -0.22 E-score
170 | ATATCGTC | 0.328 E-score
171 | AAACCCTT | -0.17 E-score
172 | AAGTGTAG | -0.0255 E-score
